According to PubChem BioAssay (NCATS):
Values joined by “and” are separate entries in the source; they are usually repeats but may differ in a detail not shown here. Equal entries are not always repeated. This list was built around the results that the source calls inconclusive (neither active nor inactive); the mix of calls is not that of the screen. For some of these results: Potencies of inconclusive entries are doubtful fits and often do not repeat. For some of these results: “Side channel” marks fits to a control or component signal instead of the main read-out. Active and inactive are the calls of the source. Unless noted, the call rests on the fitted dose curve.

Experiments:
[1] = biological target: Estrogen receptor (Homo sapiens) (UniProt P03372); test: qHTS assay for small molecule antagonists of estrogen receptor alpha signaling (AID 588513; active means well fitted curve in the direction sought with a large enough effect in the signal ratio, with a control signal flat, not every such curve was filed as active; inconclusive means small, poorly fitted or top-dose-only effect, or effect the other way, or a change in a side signal; inactive means no such curve, though single readings can be large or run the other way; the % refers to the signal ratio; further: potency means the concentration at half of the fitted maximal effect); conditions: ER-alpha-UAS-bla HEK293, beta-lactamase ratio, antagonist mode; activity, negative = inhibition: at 76.9 µM (top of the series) unless noted
In short: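 Cells were plated at 5000/well and incubated 4 h at 37 C. Compounds were added as 1:2 dilution series, duplicates. 17-beta-estradiol (0.5nM final) was added for 18 h before CCF4 detection.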

[2] = biological target: Estrogen receptor (Homo sapiens) (UniProt P03372); test: qHTS assay for small molecule agonists of estrogen receptor alpha signaling (AID 588514); conditions: ER-alpha-UAS-bla HEK293, beta-lactamase ratio, 18 h; activation: at 76.8 µM (top of the series), percent of full estradiol response, vehicle zero; further: nearly all actives have a fitted effect of over 70% in size; further: potency means the concentration at half of the fitted maximal effect;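 on activation: 0% = vehicle only and 100% = reference agonist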
In short: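 ER-alpha-UAS-bla GripTite HEK293 cells, 5000/well in 2% charcoal/dextran-stripped FBS medium, treated with compound titrations 18 h at 37 C. CCF4 beta-lactamase read by fluorescence after 2 h RT; normalised to 20 nM 17-beta-estradiol (100%) and DMSO (0%), Hill fit for EC50 and efficacy.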

[3] = biological target: Androgen receptor (Homo sapiens) (UniProt P10275); test: qHTS assay for small molecule agonists of androgen receptor signaling (AID 588515; active means well fitted curve in the direction sought with a large enough effect in the signal ratio, with a control signal flat; inconclusive means small, poorly fitted or top-dose-only effect, or effect the other way, or a change in a side signal; inactive means no such curve, though single readings can be large or run the other way; the % refers to the signal ratio; further: potency means the concentration at half of the fitted maximal effect); conditions: AR-UAS-bla HEK293, beta-lactamase ratio, agonist 16 h; activation: stronger effect = higher value
In short: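 EC50 and efficacy came from Hill fits of titrations (up to 92 uM) normalized to 30 nM R1881 as 100% and DMSO as 0%. Compound exposure was 16 h at 37 C on AR-UAS-bla HEK293 cells, with a 405/460/530 nm CCF4 fluorescence read.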

[4] = biological target: Glucocorticoid receptor (Homo sapiens) (UniProt P04150); test: qHTS assay for small molecule antagonists of glucocorticoid receptor signaling (AID 588533; active means well fitted inhibition curve with a large enough effect in the signal ratio, with a control signal flat, not every such curve was filed as active; inconclusive means small, poorly fitted or top-dose-only effect, or effect the other way, or a change in a side signal; the % refers to the signal ratio;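 further: cells stimulated with 2 nM dexamethasone as agonist; on the % scale 0 is the no-effect control and ±100 the full control effect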); conditions: HeLa MMTV-bla, GRE beta-lactamase ratio, antagonist mode, 18 h; activity change, negative = inhibition: at 76.8 µM (top of the series) unless noted
[5] = biological target: Peroxisome proliferator-activated receptor delta (Homo sapiens) (UniProt Q03181); test: qHTS assay for small molecule antagonists of peroxisome proliferator-activated receptor delta signaling (AID 588535; active means well fitted inhibition curve with a large enough effect in the signal ratio, with a control signal flat, not every such curve was filed as active; inconclusive means small, poorly fitted or top-dose-only effect, or effect the other way, or a change in a side signal; inactive means no such curve, though single readings can be large or run the other way; the % refers to the signal ratio); conditions: HEK293T PPARd-UAS-bla, beta-lactamase FRET ratio, 18 h; activity change, negative = inhibition: at 76.7 µM (top of the series) unless noted
In short: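 Reporter: UAS-bla under PPAR-delta response element, HEK293T host. Medium: 2% charcoal/dextran FBS. Dosing: titration, 18 hrs, 37 C. Detection: CCF4, 2 hrs RT, 405 ex/460 and 530 em.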

[6] = biological target: Peroxisome proliferator-activated receptor gamma (Homo sapiens) (UniProt P37231); test: qHTS assay for small molecule antagonists of peroxisome proliferator-activated receptor gamma signaling (AID 588537; active means well fitted inhibition curve with a large enough effect in the signal ratio, with a control signal flat, not every such curve was filed as active; inconclusive means small, poorly fitted or top-dose-only effect, or effect the other way, or a change in a side signal; the % refers to the signal ratio;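 further: reporter cells co-stimulated with 50 nM rosiglitazone agonist during compound treatment; % of control where 0% means no effect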); conditions: HEK293 PPARg-UAS-bla, beta-lactamase ratio, antagonist mode
In short: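 We seeded GeneBLAzer HEK293 reporter cells at 3000 per well, allowed 6-6.5 h attachment at 37 C, then co-treated with test compound titrations and 50 nM rosiglitazone overnight (16 h). Inhibition was quantified from 460/530 nm emission ratios.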

[7] = biological target: Retinoic acid receptor RXR-alpha (Homo sapiens) (UniProt P19793); test: qHTS assay for small molecule agonists of retinoid X receptor alpha signaling (AID 588544); conditions: HEK293T RXRa-UAS-bla, beta-lactamase reporter, 18 h; activation: at 76.7 µM (top of the series) unless noted; further: potency means the concentration at half of the fitted maximal effect
[8] = biological target: Retinoic acid receptor RXR-alpha (Homo sapiens) (UniProt P19793); test: qHTS assay for small molecule antagonists of retinoid X receptor alpha signaling (AID 588546; active means well fitted inhibition curve with a large enough effect in the signal ratio, with a control signal flat, not every such curve was filed as active; inconclusive means small, poorly fitted or top-dose-only effect, or effect the other way, or a change in a side signal; inactive means no such curve, though single readings can be large or run the other way; the % refers to the signal ratio;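 further: cells stimulated with 9-cis-retinoic acid as agonist; on the % scale 0 is the no-effect control and ±100 the full control effect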); conditions: HEK293T RXRa-UAS-bla, beta-lactamase ratio, antagonist mode
In short: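 Beta-lactamase reporter inhibition, read as CCF4 fluorescence ratio (ex 405, em 460/530 nm) after 2 h at RT. HEK293T UAS-bla cells, 2500/well, were stimulated with 9-cis-RA at 500 or 100 nM final alongside test compound for 18 h at 37 C.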

[9] = biological target: Peroxisome proliferator-activated receptor alpha (Homo sapiens) (UniProt Q07869); test: qHTS assay for small molecule agonists of the peroxisome proliferator-activated receptor alpha (PPARalpha) signaling pathway (AID 651778; active means well fitted curve in the direction sought with a large enough effect; inconclusive means small, poorly fitted or top-dose-only effect, or another doubt; inactive means no such curve, though single readings can be large; an effect the other way counts as inactive or inconclusive; further: potency means the concentration at half of the fitted maximal effect); conditions: PathHunter PPARalpha complementation, chemiluminescence, 6 h; max response: stronger effect = higher value
In short: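 Cells plated at 2,000/well and held overnight at 37 C, 5% CO2, then compound added by pin tool for 6 hr; after PathHunter detection reagent and 60 min at room temperature, chemiluminescence from enzyme complementation was read.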

[10] = biological target: Peroxisome proliferator-activated receptor delta (Homo sapiens) (UniProt Q03181); test: qHTS assay for small molecule agonists of peroxisome proliferator-activated receptor delta signaling (AID 588534); conditions: HEK293T PPARdelta-UAS-bla, beta-lactamase ratio, 18 h; activation: at 76.7 µM (top of the series); further: potency means the concentration at half of the fitted maximal effect
In short: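 Cells carrying a PPAR-delta beta-lactamase reporter were treated with compounds for 18 h at 37 °C in agonist mode. CCF4 fluorescence was read after 2 h; EC50 and efficacy from Hill fits.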

[11] = biological target: Thyroid hormone receptor beta (Homo sapiens) (UniProt P10828); test: qHTS assay for small molecule agonists of thyroid hormone receptor beta signaling (AID 588545); conditions: TR-UAS-bla GripTite HEK 293, beta-lactamase ratio, agonist mode, 18 h; activation: at 76.7 µM, percent of T3 response, DMSO as zero; further: potency means the concentration at half of the fitted maximal effect
In short: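 TR-UAS-bla-GripTite HEK 293 cells in medium with 2% charcoal/dextran FBS, 0.1 mM NEAA and 1 mM sodium pyruvate were treated with titrated compounds for 18 hrs at 37 C. Beta-lactamase reporter was read with CCF4 dye (ex 405, em 460/530 nm); EC50 from Hill fits.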

[12] = qHTS assay for small molecule agonists of the antioxidant response element (ARE) signaling pathway (AID 651741; active means well fitted activation curve with a large enough effect in the signal ratio; inconclusive means small, poorly fitted or top-dose-only effect, or effect the other way, or a change in a side signal; the % refers to the signal ratio; further: potency means the concentration at half of the fitted maximal effect; on activation: % of control where 0% means no effect); conditions: HepG2 ARE-bla reporter, beta-lactamase FRET ratio, 16 h; activation: at 96 µM (top of the series) unless noted
In short: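 Compounds in DMSO are pinned onto HepG2 ARE-bla cells (2,000/well) that were preincubated 5 h; plates stay 16 h at 37 C, then beta-lactamase activity is detected with LiveBLAzer B/G substrate by fluorescence.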

[13] = Cell Viability - Renal Proximal Tubule (AID 545; active means well fitted curve in the direction sought with a large enough effect; inconclusive means small, poorly fitted or top-dose-only effect, or another doubt; inactive means no such curve, though single readings can be large; an effect the other way counts as inactive or inconclusive;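 further: cells exposed to compound for 40 hours; 0% = DMSO only and -100% = 100 µM tamoxifen; nearly all actives have a fitted effect of over 40% in size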); conditions: renal proximal tubule cells viability; at 91.7 µM (top of the series), primary cells of rat origin unless noted
In short: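 Cytotoxicity is scored as a concentration-dependent drop in cellular ATP in primary rat renal proximal tubule cells exposed for 40 hr. AC50 derives from Hill modelling.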

[14] = MultiTox-Fluor Cytotoxicity Assay - LYMP1-001 - Dead Cells (AID 946; active means well fitted curve in the direction sought with a large enough effect; inconclusive means small, poorly fitted or top-dose-only effect, or another doubt; inactive means no such curve, though single readings can be large; an effect the other way counts as inactive or inconclusive;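 further: 0% = DMSO and 100% = tetraoctylammonium bromide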)
In short: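 LYMP1-001 lymphoblastoid cells (2500/well) treated 16 h at 37 C. Dead-cell protease cleavage of bis-AAF-R110 read at Ex/Em 485/520. Normalized to DMSO and 15 uM tetraoctylammonium bromide; AC50 from Hill fits.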

[15] = Cell Viability - LYMP2-008 (AID 980; active means well fitted curve in the direction sought with a large enough effect; inconclusive means small, poorly fitted or top-dose-only effect, or another doubt; inactive means no such curve, though single readings can be large; an effect the other way counts as inactive or inconclusive;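 further: cells exposed to compound for 24 h at 37 °C; on the % scale 0 is the no-effect control and ±100 the full control effect; nearly all actives have a fitted effect of over 60% in size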)
In short: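 LYMP2-008 lymphoblastoid cells (2500/well) plated 5 h, then treated 24 h at 37 C in complete medium. Viability read as intracellular ATP by CellTiter-Glo luminescence after 30 min at room temperature; AC50 from Hill fits.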

[16] = Cell Viability - LYMP2-024 (AID 988; active means well fitted curve in the direction sought with a large enough effect; inconclusive means small, poorly fitted or top-dose-only effect, or another doubt; inactive means no such curve, though single readings can be large; an effect the other way counts as inactive or inconclusive;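 further: plate controls were DMSO only for no effect and 92 µM tetraoctylammonium bromide for full effect; nearly all actives have a fitted effect of over 60% in size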)
In short: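 Human lymphoblastoid LYMP2-024 cells (2500/well) rested 5 hr, then treated with compound for 24 hr at 37 C in complete medium. Viability was measured as intracellular ATP by CellTiter-Glo luminescence. AC50 values came from Hill-equation fits.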

[17] = Cell Viability - LYMP1-002 - Assay at 24 hr (AID 993; active means well fitted curve in the direction sought with a large enough effect; inconclusive means small, poorly fitted or top-dose-only effect, or another doubt; inactive means no such curve, though single readings can be large; an effect the other way counts as inactive or inconclusive; further: on the % scale 0 is the no-effect control and ±100 the full control effect); conditions: LYMP1-002 lymphoblastoid cells viability; at 92.2 µM (top of the series)
In short: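 Human lymphoblastoid LYMP1-002 cells (2500/well) treated 24 h at 37 °C; viability as intracellular ATP by CellTiter-Glo luminescence. Tetraoctylammonium bromide as positive control; AC50 from Hill-equation fits of qHTS concentration-response.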

[18] = biological target: Peroxisome proliferator-activated receptor gamma (Homo sapiens) (UniProt P37231); test: qHTS assay for small molecule agonists of peroxisome proliferator-activated receptor gamma signaling (AID 588536; active means well fitted curve in the direction sought with a large enough effect in the signal ratio, with a control signal flat, not every such curve was filed as active; inconclusive means small, poorly fitted or top-dose-only effect, or effect the other way, or a change in a side signal; inactive means no such curve, though single readings can be large or run the other way; the % refers to the signal ratio;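 further: 0% = DMSO basal wells and 100% = rosiglitazone at 2 µM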); conditions: HEK293 PPARg-UAS-bla, beta-lactamase ratio, 16 h; activation: at 76.7 µM (top of the series), percent of rosiglitazone response, DMSO as zero unless noted
In short: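 GeneBLAzer PPAR-gamma-UAS-bla HEK293 cells in 1% charcoal/dextran-treated FBS medium were treated 16 h at 37 C with compounds. Beta-lactamase activity was read by CCF4 ratio (460/530 nm). Response was normalized to 2 uM rosiglitazone (100%) and DMSO, then Hill-fitted for EC50 and efficacy.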

[19] = biological target: Thyroid hormone receptor beta (Homo sapiens) (UniProt P10828); test: qHTS assay for small molecule antagonists of thyroid hormone receptor beta signaling (AID 588547; active means well fitted inhibition curve with a large enough effect in the signal ratio, with a control signal flat, not every such curve was filed as active; inconclusive means small, poorly fitted or top-dose-only effect, or effect the other way, or a change in a side signal; the % refers to the signal ratio; further: potency means the concentration at half of the fitted maximal effect); conditions: TR-UAS-bla HEK293, beta-lactamase ratio, antagonist mode, 18 h
In short: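 TR-UAS-bla GripTite HEK293 cells in 2% charcoal/dextran FBS medium were preincubated 4 h at 37 C, given compound (0.59 nM to 92 uM) plus 0.4 nM T3 (final) for 18 h, then CCF4 for 2 h at RT; Hill fit gave IC50.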

[20] = qHTS assay to identify small molecules that stimulate interleukin-8 (IL-8) secretion (AID 651758; active means well fitted activation curve with a large enough effect in the signal ratio; inconclusive means small, poorly fitted or top-dose-only effect, or effect the other way, or a change in a side signal; the % refers to the signal ratio; further: 0% is about no effect); conditions: HTRF ratio (665/615); activation: at 92.2 µM (top of the series)
In short: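 THP-1, 2000 cells/well; cpd 16 h, 37 C; add cryptate + XL665 anti-IL-8 Abs; RT 1-3 h; TR-FRET read.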

[21] = qHTS assay for small molecule antagonists of the retinoid-related orphan receptor gamma (ROR-gamma) signaling pathway - cell viability counter screen (AID 720652; active means well fitted curve in the direction sought with a large enough effect in the repeat runs; inconclusive means weak or mixed curves; inactive means no such curve, though single readings can be large; an effect the other way counts as inactive or inconclusive;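 further: CHO reporter cells with doxycycline-induced ROR-gamma expression; compound exposure lasted 16 hr before ATP read; on the % scale 0 is the no-effect control and ±100 the full control effect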)
In short: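 CHO cells carrying TET-inducible ROR and RORE-luciferase reporter, plated 5 hr, then dosed with compound plus doxycycline. After 16 hr at 37 C, viability read as intracellular ATP by CellTiter-Glo luminescence.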

[22] = activity, negative = inhibition: at 76.8 µM (top of the series)
Tags describe the fitted curve by direction and shape or compound fluorescence and quenching.

Chain of UniProt P03372 (P03372 whole entry, looked up): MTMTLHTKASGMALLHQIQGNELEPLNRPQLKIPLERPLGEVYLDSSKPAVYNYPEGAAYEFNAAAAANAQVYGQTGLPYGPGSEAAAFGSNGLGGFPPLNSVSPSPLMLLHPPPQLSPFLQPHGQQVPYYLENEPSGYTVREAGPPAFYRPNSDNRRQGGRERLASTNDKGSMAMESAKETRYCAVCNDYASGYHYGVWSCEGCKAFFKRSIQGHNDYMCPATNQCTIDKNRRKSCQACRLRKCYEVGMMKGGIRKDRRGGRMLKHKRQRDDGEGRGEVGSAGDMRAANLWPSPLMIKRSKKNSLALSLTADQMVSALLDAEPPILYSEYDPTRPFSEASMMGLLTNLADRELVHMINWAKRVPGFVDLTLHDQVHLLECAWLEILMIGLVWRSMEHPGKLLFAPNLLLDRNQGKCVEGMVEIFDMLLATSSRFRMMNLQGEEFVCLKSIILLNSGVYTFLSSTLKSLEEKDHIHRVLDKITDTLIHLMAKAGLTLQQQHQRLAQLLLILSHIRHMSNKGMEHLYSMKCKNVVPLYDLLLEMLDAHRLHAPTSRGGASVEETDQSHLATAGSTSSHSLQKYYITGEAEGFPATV
Chain of UniProt Q03181 (Q03181 whole entry, looked up): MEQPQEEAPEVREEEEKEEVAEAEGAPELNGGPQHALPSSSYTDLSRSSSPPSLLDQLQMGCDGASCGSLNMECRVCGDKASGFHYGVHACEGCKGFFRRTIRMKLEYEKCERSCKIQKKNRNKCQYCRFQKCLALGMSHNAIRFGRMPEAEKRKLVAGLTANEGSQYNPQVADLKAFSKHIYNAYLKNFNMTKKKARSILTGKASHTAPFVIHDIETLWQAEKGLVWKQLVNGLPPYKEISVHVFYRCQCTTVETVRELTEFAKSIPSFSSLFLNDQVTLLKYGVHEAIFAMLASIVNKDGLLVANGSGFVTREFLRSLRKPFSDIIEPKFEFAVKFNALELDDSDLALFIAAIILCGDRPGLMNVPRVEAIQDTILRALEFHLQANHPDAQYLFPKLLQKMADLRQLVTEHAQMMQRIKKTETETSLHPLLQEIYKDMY
Chain of UniProt P19793 (P19793 whole entry, looked up): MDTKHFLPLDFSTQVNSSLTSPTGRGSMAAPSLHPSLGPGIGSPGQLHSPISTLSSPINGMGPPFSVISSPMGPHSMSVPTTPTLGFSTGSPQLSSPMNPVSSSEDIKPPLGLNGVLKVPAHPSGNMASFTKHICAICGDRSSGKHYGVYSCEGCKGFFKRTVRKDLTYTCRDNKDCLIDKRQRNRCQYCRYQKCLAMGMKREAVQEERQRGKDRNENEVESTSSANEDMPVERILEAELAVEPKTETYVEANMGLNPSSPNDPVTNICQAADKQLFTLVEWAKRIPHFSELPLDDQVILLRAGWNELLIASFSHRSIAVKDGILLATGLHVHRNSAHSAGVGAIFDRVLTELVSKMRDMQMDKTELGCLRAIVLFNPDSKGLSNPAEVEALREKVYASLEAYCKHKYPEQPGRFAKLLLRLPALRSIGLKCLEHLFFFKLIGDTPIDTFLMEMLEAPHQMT
Chain of UniProt P10828 (P10828 whole entry, looked up): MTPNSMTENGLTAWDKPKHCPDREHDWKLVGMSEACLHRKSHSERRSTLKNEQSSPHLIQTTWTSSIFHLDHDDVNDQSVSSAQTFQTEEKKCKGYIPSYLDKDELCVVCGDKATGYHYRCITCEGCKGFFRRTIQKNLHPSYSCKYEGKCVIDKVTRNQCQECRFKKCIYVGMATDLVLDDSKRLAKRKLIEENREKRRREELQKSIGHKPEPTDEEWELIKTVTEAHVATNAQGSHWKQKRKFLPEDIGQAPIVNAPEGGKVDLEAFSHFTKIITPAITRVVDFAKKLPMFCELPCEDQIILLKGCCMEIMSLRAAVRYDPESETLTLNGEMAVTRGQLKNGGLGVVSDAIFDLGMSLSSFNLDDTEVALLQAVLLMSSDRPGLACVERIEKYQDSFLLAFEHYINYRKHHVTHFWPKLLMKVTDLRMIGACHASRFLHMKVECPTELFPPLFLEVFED
Chain of UniProt Q07869 (Q07869 whole entry, looked up): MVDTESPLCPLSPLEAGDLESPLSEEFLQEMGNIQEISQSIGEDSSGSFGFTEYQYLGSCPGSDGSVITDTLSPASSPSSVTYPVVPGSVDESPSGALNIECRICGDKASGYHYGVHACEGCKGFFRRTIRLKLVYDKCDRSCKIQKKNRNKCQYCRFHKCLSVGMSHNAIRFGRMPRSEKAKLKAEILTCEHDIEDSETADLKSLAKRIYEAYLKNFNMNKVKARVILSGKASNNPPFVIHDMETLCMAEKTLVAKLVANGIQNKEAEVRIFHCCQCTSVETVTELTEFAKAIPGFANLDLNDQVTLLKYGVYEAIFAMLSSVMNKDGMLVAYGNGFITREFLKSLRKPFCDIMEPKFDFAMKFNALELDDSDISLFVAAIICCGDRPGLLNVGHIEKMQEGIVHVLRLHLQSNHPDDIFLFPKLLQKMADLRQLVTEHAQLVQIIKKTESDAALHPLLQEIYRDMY
Chain of UniProt P10275 (P10275 whole entry, looked up): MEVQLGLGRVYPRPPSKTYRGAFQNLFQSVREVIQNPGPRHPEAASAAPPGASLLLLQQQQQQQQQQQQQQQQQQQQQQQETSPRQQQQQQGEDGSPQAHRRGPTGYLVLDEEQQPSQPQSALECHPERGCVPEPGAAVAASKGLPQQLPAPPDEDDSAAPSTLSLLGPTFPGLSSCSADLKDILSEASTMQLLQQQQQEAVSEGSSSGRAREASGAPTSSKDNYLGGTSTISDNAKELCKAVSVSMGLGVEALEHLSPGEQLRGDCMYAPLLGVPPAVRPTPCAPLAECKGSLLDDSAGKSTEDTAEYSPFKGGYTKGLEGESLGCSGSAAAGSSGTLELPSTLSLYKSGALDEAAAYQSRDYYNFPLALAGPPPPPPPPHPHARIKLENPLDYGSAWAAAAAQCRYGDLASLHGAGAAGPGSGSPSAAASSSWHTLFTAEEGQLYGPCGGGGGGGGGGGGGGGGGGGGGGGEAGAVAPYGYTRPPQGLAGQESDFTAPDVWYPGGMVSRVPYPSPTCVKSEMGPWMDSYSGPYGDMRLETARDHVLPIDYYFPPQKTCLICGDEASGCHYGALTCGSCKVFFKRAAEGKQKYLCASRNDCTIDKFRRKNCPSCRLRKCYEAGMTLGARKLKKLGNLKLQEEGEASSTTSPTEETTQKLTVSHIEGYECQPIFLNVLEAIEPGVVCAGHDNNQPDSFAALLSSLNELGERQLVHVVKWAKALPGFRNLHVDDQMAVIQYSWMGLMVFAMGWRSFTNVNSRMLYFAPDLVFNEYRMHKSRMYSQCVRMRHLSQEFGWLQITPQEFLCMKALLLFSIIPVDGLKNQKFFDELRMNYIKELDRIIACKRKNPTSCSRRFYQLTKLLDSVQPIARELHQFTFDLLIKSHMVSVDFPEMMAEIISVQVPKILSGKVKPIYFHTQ

## N#Cc1cc(Br)c(O)c(Br)c1
[1]
  activity, negative = inhibition: inconclusive: -14.5%
[2]
  Potency: inconclusive: 35.5 µM [side channel, rising, partial curve, poor fit]
[3]
  Potency: inconclusive: 15.8 µM [side channel, rising, full curve]
[4]
  Potency: inactive
[5]
  activity change, negative = inhibition: inconclusive: 20.2%
[6]; [22]
  activity, negative = inhibition: inconclusive: -66.5%
[7]
  Potency: active: 15.8 µM
[8]
  max response: inactive: 1.7%
[9]
  Potency: active: 25.1 µM

## CC(C)(C)C(=O)C(Oc1ccc(Cl)cc1)n1cncn1 (stereo unspecified)
[1]
  Potency: inconclusive: 0.501 µM [activator, full curve, poor fit]
  activity, negative = inhibition: inconclusive: 0.39%
[2]
  Potency: active: 39.8 µM
[4]
  activity change, negative = inhibition: inconclusive: -2.53% and inconclusive: -13.6%
[10]
  Potency: inconclusive: 14.1 µM [side channel, rising, partial curve, poor fit]
[6]; [22]
  Potency: inactive
[11]
  Potency: inconclusive: 0.0071 µM [side channel, falling, full curve, poor fit]
[12]
  Potency: inactive and inconclusive: 19.3 µM [inhibitor, partial curve, poor fit]

## c1ccc(OP(Oc2ccccc2)Oc2ccccc2)cc1
[13]
  activity change, negative = cytotoxicity: inactive: 1.28%
[14]
  Potency: inactive
[15]
  Potency: inactive
[16]
  Potency: inactive
[17]
  activity change, negative = cytotoxicity: inactive: 2.58%
[2]
  activation: inconclusive: 37.4%
[18]
  Potency: inactive
[6]; [22]
  activity, negative = inhibition: inconclusive: 12.2%
[6]; at 76.8 µM (top of the series)
  activity, negative = inhibition: inactive: 4.33%
[19]
  Potency: inconclusive: 0.0079 µM [cytotoxic, side channel, full curve, poor fit]
[12]
  Potency: inconclusive: 77 µM [activator, partial curve, poor fit]
  activation: inconclusive: 12.8%
[20]
  Potency: inactive
[21]
  Potency: inactive
